Experimental data reported in PubChem BioAssay (NCI).
“And” between values parts separate entries of the source, which are not always exact repeats. Identical values can stand only once.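 In this assay, cells in 96-well plates receive the compound at five concentrations for 48 hours. Endpoints are linearly interpolated between the surrounding concentrations. GI50: concentration for 50% inhibition of growth. TGI: total growth inhibition.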

Test system: NCI-H322M lung
Test: NCI-60 cell line screen, 48 h

Row | Structure (SMILES) | GI50 | TGI
1 | COc1ccc(NC(=O)c2cc(OC)c(OC)c(OC)c2)cc1O | > 100 µM | > 100 µM
2 | Cc1ccc(N2C(=O)/C(=C3\Sc4c(nc(C)[nH]c4=O)N3c3ccccc3)SC2=S)cc1 | – | > 100 µM
3 | COC(=O)C1=C(O)C(C(=O)OC)[C@]2(O)[C@H](C(=O)OC)[C@H]1C[C@@H](c1ccc(OC)cc1)[C@H]2C(=O)OC (stereo partly drawn) | – | 88.4 µM
4 | CC(=O)c1cn(-c2ccc(Cl)cc2)c(=O)c2c(N)n[nH]c12 | – | > 100 µM
5 | COc1ccc(-c2ccc(-c3ccc(C(=N)N)cn3)s2)cc1Cl | 1.49 µM | 2.86 µM
6 | COc1cc(C2C(C(=O)Nc3ccccc3)=C(C)NC(C)=C2C(=O)Nc2ccccc2)ccc1O | – | > 100 µM
7 | COC(=O)CCC1=C(C)c2cc3[n-]c(cc4nc(cc5[n-]c(cc1n2)c(CCC(=O)OC)c5C)C=C4C)cc3C.[Cd+2] | 33.9 µM | > 100 µM
8 | CC1OC(O)C(O)C(O)C1O (stereo not drawn) | – | > 100 µM
9 | CC#CC(=O)N1CCC[C@H]1c1nc(-c2ccc(C(=O)Nc3ccccn3)cc2)c2c(N)nccn12 | 24 µM | > 100 µM
10 | C[C@@H]1C(O)CC[C@H](C)C12CC=CC2=O (stereo partly drawn) | – | > 100 µM
11 | N#Cc1c(NC(=S)NCc2ccccc2)sc2c1CCN(N1CCc3c(sc(NC(=S)NCc4ccccc4)c3C#N)C1)C2 | – | > 100 µM
12 | CC(=O)OC1CCC2(C)C(=CC(C3C=C4CC(OC(C)=O)CCC4(C)C4=C3C3CC5OC6(CCC(C)CO6)C(C)C5C3(C)CC4)C3=C2CCC2(C)C3CC3OC4(CCC(C)CO4)C(C)C32)C1 (stereo not drawn) | – | 62.8 µM
13 | CC12ON=C(c3ccccc3)N1C=CN1C(c3ccccc3)=NOC12 (stereo not drawn) | – | > 100 µM
14 | Clc1nc2c(-c3cccs3)ncnc2n1Cc1ccccc1 | – | 5.56 µM
15 | CN(/N=C\c1ccc2ccccc2c1)C1=NCCCCN1 | – | 71.9 µM
16 | C[C@@H]1OC(=O)C[C@H]2CC(=O)N(CCc3cn(S(=O)(=O)C(F)(F)F)c4ccccc34)C[C@@H]21 | – | > 100 µM
17 | CCNCCNc1cc(-c2ccc(F)cc2)c(C#N)c2nc3ccccc3n12 | 6.38 µM | 20.2 µM
18 | C=C1C(C)C2C(Cc3ccccc3)NC(=O)C23C(OC(C)=O)/C=C/C(C)(O)CC(C)C/C=C/C3C1O (stereo not drawn) | – | > 100 µM
19 | COc1ccc(/C=C2\N=C3SC=C(N)N3C2=O)cc1 | 1.91 µM | 12.3 µM
20 | O=Cc1coc2ccccc2c1=O | – | > 100 µM
21 | CCOC(=O)CCC(NC(=O)OCc1ccccc1)C(=O)NC(CCC(=O)OCC)C(=O)NC(CCC(=O)OCC)C(=O)NC(CCC(=O)OCC)C(=O)NC(CCC(=O)OCC)C(=O)OCC (stereo not drawn) | – | > 100 µM
22 | CCN1/C(=C/C(C)=C/c2sc3ccccc3[n+]2CC)Sc2ccccc21 | – | 1.74 µM
23 | CC/C(Cl)=N\OC(=O)Nc1ccc(C#N)cc1 | – | 34.1 µM
24 | O=C(NNS(=O)(=O)c1cc(C(F)(F)F)cc(C(F)(F)F)c1)c1cnn(-c2ccc(Cl)cc2)c1C(F)(F)F | 21.6 µM | 58.5 µM

Row | Structure (SMILES) | GI50 | TGI
25 | CCS/C(Nc1ccccc1)=C(\C#N)C(=O)Nc1ccc(OC)cc1 | 5.81 µM | > 100 µM
26 | Nc1cccc(OCc2nc(N)nc(N)c2-c2ccc(Cl)cc2)c1 | – | > 100 µM
27 | O=C(C1OC1c1ccc([N+](=O)[O-])cc1)C12CC3CC(CC(C3)C1)C2 (stereo not drawn) | – | 42.7 µM
28 | COc1ccc2c(c1)c1cc(OC)ccc1n2CCCCOc1ccc(-c2c3ccccc3c(-c3ccc(OCCCCn4c5ccc(OC)cc5c5cc(OC)ccc54)cc3)c3ccccc23)cc1 | – | > 100 µM
29 | COc1ccc(C2S/C(=C\c3ccc(OC)cc3OC)C(=O)N2NC(=O)Cc2ccccc2)cc1 (stereo not drawn) | – | > 100 µM
30 | Cc1cn(C2CC(N=[N+]=[N-])C(CO[Si](C)(C)C(C)(C)C)O2)c(=O)[nH]c1=O (stereo not drawn) | – | 38.8 µM
31 | CC(C)[Si](OC1=CCCCCC12C(=O)N(C)c1ccccc12)(C(C)C)C(C)C (stereo not drawn) | – | 42.4 µM
32 | Cc1nc(-c2nc([N+](=O)[O-])c([N+](=O)[O-])[nH]2)cs1 | – | > 100 µM
33 | CC(C)[Si]1(C(C)C)OCC2OC(n3ccc(=O)[nH]c3=O)C(O)(CO)C2O[Si](C(C)C)(C(C)C)O1 (stereo not drawn) | – | 30.8 µM
34 | CCNCC(O)c1ccc(N)c([N+](=O)[O-])c1 (stereo not drawn) | – | > 100 µM
35 | CC/C=C\CCC/C=C1/C(=O)C=C[C@@H]1C/C=C\CCCC(=O)O | 4.46 µM | 17.9 µM
36 | CCCC[C@@H](COC(=O)N(Cc1cccs1)Cc1cccs1)NC(=O)N[C@@H](CC(=O)OC)c1ccc2c(c1)OCO2 | > 100 µM | > 100 µM
37 | CC(C)(C)OC(=O)NC(Cc1ccc([N+](=O)[O-])cc1)C(=O)NC(CCCCNC(=O)OCc1ccccc1)C(=O)ON1C(=O)CCC1=O (stereo not drawn) | – | > 100 µM
38 | CCCc1c2c3ccccc3nc-2nc2ccccn12 | – | > 100 µM
39 | CC1(C)CCc2c(c(N=Nc3ccccc3)c3ccccc3c2O)O1 | – | > 100 µM
40 | C=C(C)C1/C=C(/C(C)C)CC[C@]2(C)O[C@@H]2CC[C@H](C)CC1=O (stereo partly drawn) | > 100 µM | > 100 µM
41 | Cc1cccc2c1C(=O)C(C1OC(=O)c3ccccc31)C2 (stereo not drawn) | – | > 100 µM
42 | Cc1cc2c(-c3ccccc3)cc(=O)[nH]c2cc1N | – | > 100 µM
43 | CCC(=O)NCCc1c[nH]c2ccc(OC)cc12 | – | > 100 µM
44 | CCN(CC)CCNc1ccc(C)c2sc3ccc(O)cc3c(=O)c12 | – | 8.29 µM
45 | S=C1C=C(c2ccccc2)Sc2ccccc2N1 | – | > 100 µM
46 | CC(C)(C)CC(C)(C)c1ccc(OCCOCCSC(=N)N)cc1 | 2.92 µM | 9.15 µM
47 | C[Si](C)(C)/C=C/CN1C(=O)CCC1O (stereo not drawn) | – | > 100 µM
48 | CN(C)c1ccc(/C=C/c2ccnc3ccccc23)cc1 | 21.1 µM | > 100 µM

Row | Structure (SMILES) | GI50 | TGI
49 | COc1ccc(NC(=O)C(=O)C2NC(=S)NC2=O)c(OC)c1 (stereo not drawn) | – | > 100 µM
50 | CSCCCCCCCCCCOc1ccc(C=C2C(=C(C#N)C#N)c3ccccc3C2=C(C#N)C#N)cc1 | – | 30.8 µM
51 | COC(=O)C1=C(C(=O)OC)C2(C(=O)OC)OC1(OC)C(C1(C(=O)OC)C(C(=O)OC)=C1C(=O)OC)=C2C(=O)OC (stereo not drawn) | – | > 100 µM
52 | CN1OC(=O)N(C)C1c1ccccc1 (stereo not drawn) | – | > 100 µM
53 | Fc1ccccc1C1CC(C(c2ccccc2)c2ccccc2)=Nc2ccccc2S1 (stereo not drawn) | – | 26.4 µM
54 | C=C(Cl)C(Cl)(CBr)CCC(Cl)C(C)(C)Cl (stereo not drawn) | – | 8.4 µM
55 | Cc1ccc(NC(=O)C(=O)Cc2nc3ccccc3o2)c(C)c1 | – | > 100 µM
56 | CC(=O)/C(C)=N/N/C(N)=N\S(=O)(=O)c1cc(C(=O)Nc2ccccc2)c(Cl)cc1SCc1ccccc1 | 37.7 µM | > 100 µM
57 | Cc1nc(NC(=O)N2CCC[C@H]2C(N)=O)sc1-c1ccnc(C(C)(C)C(F)(F)F)c1 | 2.27 µM and 3.16 µM | 23.6 µM and > 10 µM
58 | O=[N+]([O-])c1ccc(Cl)c(C2SCc3nc4ccccc4n32)c1 (stereo not drawn) | – | > 100 µM
59 | Cc1cc(C)nc(NS(=O)(=O)c2ccc(NC(=O)c3cccc4cc5ccccc5nc34)cc2)n1 | – | > 100 µM
60 | Cn1c(O)c(C(=O)Nc2ccc([N+](=O)[O-])cc2)c(=O)n(C)c1=S | – | 8.51 µM
61 | O=[As](O)(O)c1ccc(Cc2ccc([As](=O)(O)O)cc2)cc1 | – | 9.5 µM
62 | CC(Cc1ccc(O)c(O)c1)C(C)Cc1ccc(O)c(O)c1 (stereo not drawn) | – | 57.8 µM
63 | COc1ccc2c3c(c(OCCCN(C)C)nc2c1)-c1ccc(Cl)cc1C3=O | 3.9 µM | 19.9 µM
64 | COc1cc2c(cc1OC)CCN=C2 | – | > 100 µM
65 | CC1=C(C(=O)OC(C)C)C(c2ccccc2[N+](=O)[O-])C(C(=O)OC(CO[N+](=O)[O-])CO[N+](=O)[O-])=C(C)N1 (stereo not drawn) | – | 89.3 µM
66 | COC(=O)CCCCC/C(=C\C(=O)C(Cl)(Cl)Cl)OC | – | 69.9 µM
67 | COc1nc(=O)n(C2CC(N=[N+]=[N-])C(CO)O2)cc1C (stereo not drawn) | – | > 100 µM
68 | COc1ccc(C(=O)C=C2NCCN2)cc1 | – | > 100 µM
69 | CC(=O)Nc1ccc(-c2nnc(SCC(=O)Nc3ccc(C)cc3)o2)cc1 | – | 93.1 µM
70 | CN(Cc1cnc2nc(N)nc(N)c2n1)c1ccc(C(=O)NC(CCC(=O)O)C(=O)O)cc1 (stereo not drawn) | 0.406 µM | > 100 µM
71 | Nc1ccn(C2OC(COP(=O)(O)Oc3ccccc3)C(O)C2O)c(=O)n1 (stereo not drawn) | – | > 100 µM
72 | O=C1OC(CN2CCN(c3ccccc3)CC2)CN1C(=S)Nc1ccccc1 (stereo not drawn) | – | > 100 µM

Row | Structure (SMILES) | GI50 | TGI
73 | O=[N+]([O-])C1(C2([N+](=O)[O-])CCCC2)CCCC1 | – | > 100 µM
74 | COc1cc(Br)c(CC2=NCCc3cc(OC)c(OC)cc32)cc1OC | – | > 100 µM
75 | O=C(NC(Nc1ccc(F)c(Cl)c1)(C(F)(F)F)C(F)(F)F)C(C(F)(F)F)C(F)(F)F | – | > 100 µM
76 | Cc1nc(C(N)=S)sc1C(=O)/C=C/c1cccc(O)c1 | – | > 100 µM
77 | Cc1ccc(S(=O)(=O)N/N=C2\C=C[C@]3(CC2)C(=O)N(C)c2ccccc23)cc1 | – | > 100 µM
78 | O=C(O)CCC1(c2ccccc2)NC(=O)NC1=O (stereo not drawn) | – | > 100 µM
79 | CC[C@H](C)[C@H](NC(=O)C12C3C4C1C1C2C3C41NC(C)=O)C(=O)N(C)[C@H](C[C@@H](OC(C)=O)c1nc(C(=O)N[C@@H](Cc2ccccc2)C[C@H](C)C(=O)OC)cs1)C(C)C (stereo partly drawn) | 0.995 µM | > 14.3 µM
80 | O=C1/C(=C/c2cccs2)CCC/C1=C\c1cccs1 | 51.5 µM | > 100 µM
81 | CCC1(CN(C)C)CC/C(=C\c2ccc3c(c2)OCO3)C1=O (stereo not drawn) | – | > 100 µM
82 | COc1cc(CC2c3cc(OC)c(OC)cc3CCN2C)c(Oc2cc3c(cc2OC)-c2c(OC)c(OC)c(OC)c4c2C(C3)N(C)CC4)cc1OC (stereo not drawn) | – | > 53.8 µM
83 | C[C@H]1[C@@H](OCC(CO[C@H]2O[C@@H]3O[C@@]4(C)CC[C@H]5[C@H](C)CC[C@@H]([C@H]2C)[C@@]35OO4)=NOCC(=O)O)OC2O[C@@]3(C)CC[C@H]4[C@H](C)CC[C@@H]1[C@@]24OO3 (stereo partly drawn) | 10.7 µM | 23.3 µM
84 | O=[N+]([O-])c1ccc2c(N=Nc3c(O)ccc4ccccc34)c(O)cc(S(=O)(=O)O)c2c1 | – | 50 µM
85 | Oc1c(CN2CCCC2)cc(COCc2ccccc2)c2cccnc12 | 1.07 µM | 11.4 µM
86 | N#Cc1c(-c2ccc(Cl)cc2)c(C#N)c(=O)n(NS(=O)(=O)c2ccccc2)c1-c1ccccc1 | – | > 25 µM
87 | C[C@@H]1CCC2[C@@H](C)C(=O)O[C@@H]3C4C[C@@H]1[C@@]23OO[C@@]4(C)O (stereo partly drawn) | – | > 100 µM
88 | CC1OC(=O)c2ccccc2NC1=O (stereo not drawn) | – | > 100 µM
89 | CC(C)(C)OC(=O)N1CCC23CCCC2C(=O)CC=C13 (stereo not drawn) | – | > 100 µM
90 | Cc1ccc(Nc2ccc(Nc3ccc(C)cc3)c3c2C(=O)c2c(O)ccc(O)c2C3=O)cc1 | – | > 100 µM
91 | CC1=C2C(c3ccccc3)(c3ccccc3)C3C=CC2(C=N3)N(C(=O)NC2CCCCC2)C1=O (stereo not drawn) | – | 36 µM
92 | COc1ccc(/C=C\c2cc(OC)c(OC)c(OC)c2)c(NS(=O)(=O)c2ccc(C)cc2)c1O | 0.0779 µM | > 100 µM
93 | c1ccc(-c2nc(N3CCNCC3)c3nc(-c4ccccc4)oc3n2)cc1 | 1.67 µM | 3.06 µM
94 | O=C(O)c1ccccc1/C=N\NC1=NCCN1 | – | > 100 µM
95 | CC1(C)OCN(c2ccc(Cl)cc2)Cn2c1nc1ccccc12 | – | > 100 µM
